Experimental data published in patent publication US20250177546A1, “ROR1-TARGETED BINDING MOLECULE AND USE THEREOF” (SANYOU BIOPHARMACEUTICALS CO., LTD., priority 2022, published 2025).

Assays:
MDA-MB-468 cells = assay: ADC tumor cell killing, CCK8 assay, MDA-MB-468; format: cell-based, human; settings: CCK8, 72 h
HT-29 tumor = assay: ADC efficacy in mouse model bearing HT-29 tumor; format: in vivo

B1: B31-H3L3-MMAE (conjugate)
heavy: EVQLVESGGGLVQPGGSLRLSCAASGFTFSRYAMSWVRQAPGKGLEWVASISRGGSTYYADSVKGRFTISRDNSKNTLYLQMNSLRAEDTAVYYCASYFGNYDAMDYWGQGTTVTVSS[human IgG1 constant region not listed]
light: DIQMTQSPSSLSASVGDRVTITCRASQDINNYVSWFQQKPGKAPKSLIYRANRLVSGVPSRFSGSGSGTDFTFTISSLQPEDFATYYCLQFDEFPYTFGGGTKLEIKRTVAAPSVFIFPPSDEQLKSGTASVVCLLNNFYPREAKVQWKVDNALQSGNSQESVTEQDSKDSTYSLSSTLTLSKADYEKHKVYACEVTHQGLSSPVTKSFNRGEC
EC50 (MDA-MB-468 cells): 15.2 nM | Tumor growth inhibition (TGI) (HT-29 tumor; 0.4 mpk, tail vein BIW*4, day 23): −2.50% | Tumor growth inhibition (TGI) (HT-29 tumor; 0.4 mpk, tail vein BIW*4, day 27): 8.22% | Tumor growth inhibition (TGI) (HT-29 tumor; 0.4 mpk, tail vein BIW*4, day 30): −0.94% | Tumor growth inhibition (TGI) (HT-29 tumor; 0.4 mpk, tail vein BIW*4, day 34): −5.59% | Tumor growth inhibition (TGI) (HT-29 tumor; 0.4 mpk, tail vein BIW*4, day 37): 4.75% | Tumor growth inhibition (TGI) (HT-29 tumor; 0.4 mpk, tail vein BIW*4, day 41): 9.43% | Tumor growth inhibition (TGI) (HT-29 tumor; 0.4 mpk, tail vein BIW*4, day 44): 12.34% | Tumor growth inhibition (TGI) (HT-29 tumor; 0.4 mpk, tail vein BIW*4, day 48): 17.92% | Tumor growth inhibition (TGI) (HT-29 tumor; 0.4 mpk, tail vein BIW*4, day 51): 16.05% | Tumor growth inhibition (TGI) (HT-29 tumor; 2 mpk, tail vein BIW*4, day 23): −7.50% | Tumor growth inhibition (TGI) (HT-29 tumor; 2 mpk, tail vein BIW*4, day 27): 8.48% | Tumor growth inhibition (TGI) (HT-29 tumor; 2 mpk, tail vein BIW*4, day 30): 6.86% | Tumor growth inhibition (TGI) (HT-29 tumor; 2 mpk, tail vein BIW*4, day 34): 0.99% | Tumor growth inhibition (TGI) (HT-29 tumor; 2 mpk, tail vein BIW*4, day 37): 4.88% | Tumor growth inhibition (TGI) (HT-29 tumor; 2 mpk, tail vein BIW*4, day 41): 6.70% | Tumor growth inhibition (TGI) (HT-29 tumor; 2 mpk, tail vein BIW*4, day 44): 9.97% | Tumor growth inhibition (TGI) (HT-29 tumor; 2 mpk, tail vein BIW*4, day 48): 14.09% | Tumor growth inhibition (TGI) (HT-29 tumor; 2 mpk, tail vein BIW*4, day 51): 15.37% | Tumor growth inhibition (TGI) (HT-29 tumor; 10 mpk, tail vein BIW*4, day 23): −5.56% | Tumor growth inhibition (TGI) (HT-29 tumor; 10 mpk, tail vein BIW*4, day 27): 17.16% | Tumor growth inhibition (TGI) (HT-29 tumor; 10 mpk, tail vein BIW*4, day 30): 36.56% | Tumor growth inhibition (TGI) (HT-29 tumor; 10 mpk, tail vein BIW*4, day 34): 59.72% | Tumor growth inhibition (TGI) (HT-29 tumor; 10 mpk, tail vein BIW*4, day 37): 73.42% | Tumor growth inhibition (TGI) (HT-29 tumor; 10 mpk, tail vein BIW*4, day 41): 83.01% | Tumor growth inhibition (TGI) (HT-29 tumor; 10 mpk, tail vein BIW*4, day 44): 85.35% | Tumor growth inhibition (TGI) (HT-29 tumor; 10 mpk, tail vein BIW*4, day 48): 85.16% | Tumor growth inhibition (TGI) (HT-29 tumor; 10 mpk, tail vein BIW*4, day 51): 85.53% | tumor inhibition effect (HT-29 tumor; high-dose (10 mpk), BIW*4): significant tumor inhibition effects | tumor inhibition effect relative to 99961.1-MMAE (HT-29 tumor; high-dose (10 mpk), BIW*4): equivalent to that of 99961.1-MMAE
